Laboratory results taken from the supplement of paper PMC12217912.
The other results are listed elsewhere or left out. The full chains were built here from the parent and the listed change. Inactive controls read about 0.05.

B1: TEV protease; numbered along this chain (parent)
chain: MGESLFKGPRDYNPISSSICHLTNESDGHTTSLYGIGFGPFIITNKHLFRRNNGTLVVQSLHGVFKVKDTTTLQQHLVDGRDMIIIRMPKDFPPFPQKLKFREPQREERICLVTTNFQTKSMSSMVSDTSCTFPSGDGIFWKHWIQTKDGQCGSPLVSTRDGFIVGIHSASNFTNTNNYFTSVPKNFMELLTNQEAQQWVSGWRLNADSVLWGGHKVFMVKPEEPFQPVKEATQL

Variants of: B1
Experiment: raw area under fraction-flipped curve 0-4 h after induction (AUC4h, not background-subtracted), DNA-recorder readout of cleavage of the substrate (dimensionless); higher = more cleavage of the substrate by the protease variant
Details: temperature: 34 °C; time window: 0-4 h after rhamnose induction
Experimental: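 In vivo DNA recorder in E. coli TOP10(DE3) ΔrhaA at 34 °C. Each TEVp single-site mutant (parent TEVp 0) is paired with a single-site variant of the 7-mer TEVs (canonical ENLYFQ|S). The substrate sits between flexible linkers in a Bxb1-sfGFP-TEVs-SsrA fusion, so cleavage stabilises Bxb1 and speeds flipping of a recombination array, read by NGS. The value is the raw area under the fraction-flipped curve over 0-4 h after rhamnose induction (AUC4h), with ≥20 reads per time point. It is not background-subtracted; inactive controls average about 0.047.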
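Note: Bxb1 expression induced with 0.2% (w/v) L-rhamnose at OD600 near 0.5, cultures sampled hourly, flipped fraction per protease–substrate barcode pair counted by paired-end Illumina sequencing.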

In the case of S17T, the “area with substrate ECLYFQS” value is reported as 0.131, the “area with substrate EDLYFQS” value is reported as 0.162 and the “area with substrate EFLYFQS” value is reported as 0.11. The “area with substrate EHLYFQS” value was 0.0959, the “area with substrate EILYFQS” value was 0.106 and the “area with substrate ELLYFQS” value was 0.0944. The “area with substrate EPLYFQS” value was 0.128, the “area with substrate EQLYFQS” value was 0.134 and the “area with substrate ERLYFQS” value was 0.0993. For the same variant, the “area with substrate ESLYFQS” value was 0.115, the “area with substrate ETLYFQS” value was 0.13 and the “area with substrate EWLYFQS” value was 0.123. The “area with substrate EYLYFQS” value was 0.0987.

With S17I the “area with substrate ECLYFQS” value was 0.0933, the “area with substrate EDLYFQS” value was 0.117 and the “area with substrate EGLYFQS” value was 0.092. The “area with substrate EHLYFQS” value was 0.107, the “area with substrate EILYFQS” value was 0.0633 and the “area with substrate ELLYFQS” value was 0.101. The “area with substrate EPLYFQS” value was 0.0995, the “area with substrate ESLYFQS” value was 0.0848 and the “area with substrate ETLYFQS” value was 0.0859. For the same variant, the “area with substrate EYLYFQS” value was 0.068.

With Y34R the “area with substrate ECLYFQS” value was 0.0745, the “area with substrate EELYFQS” value was 0.111 and the “area with substrate EHLYFQS” value was 0.106. The “area with substrate ELLYFQS” value was 0.0764, the “area with substrate EMLYFQS” value was 0.113 and the “area with substrate ESLYFQS” value was 0.0784. For the same variant, the “area with substrate EVLYFQS” value was 0.0895 and the “area with substrate EYLYFQS” value was 0.124.

With Y34V the “area with substrate ECLYFQS” value was 0.0604, the “area with substrate EELYFQS” value was 0.0483 and the “area with substrate EGLYFQS” value was 0.0679. For the same variant, the “area with substrate EILYFQS” value was 0.0698, the “area with substrate EKLYFQS” value was 0.0711 and the “area with substrate EQLYFQS” value was 0.108. The “area with substrate ESLYFQS” value was 0.116, the “area with substrate ETLYFQS” value was 0.0804 and the “area with substrate EWLYFQS” value was 0.0708. The “area with substrate EYLYFQS” value was 0.113.

For L61P, the “area with substrate ECLYFQS” value was 0.0654, the “area with substrate EDLYFQS” value was 0.139 and the “area with substrate EELYFQS” value was 0.135. The “area with substrate EGLYFQS” value was 0.0897, the “area with substrate EHLYFQS” value was 0.0986 and the “area with substrate EILYFQS” value was 0.0926. For the same variant, the “area with substrate EKLYFQS” value was 0.0955, the “area with substrate EMLYFQS” value was 0.108 and the “area with substrate EPLYFQS” value was 0.142. For the same variant, the “area with substrate EQLYFQS” value was 0.0988, the “area with substrate ERLYFQS” value was 0.0819 and the “area with substrate ESLYFQS” value was 0.113. For the same variant, the “area with substrate ETLYFQS” value was 0.118, the “area with substrate EVLYFQS” value was 0.0963 and the “area with substrate EWLYFQS” value was 0.106.

With L61R the “area with substrate ECLYFQS” value was 0.0844, the “area with substrate EDLYFQS” value was 0.144 and the “area with substrate EELYFQS” value was 0.108. For the same variant, the “area with substrate EGLYFQS” value was 0.0891, the “area with substrate EILYFQS” value was 0.117 and the “area with substrate EKLYFQS” value was 0.133. For the same variant, the “area with substrate ELLYFQS” value was 0.105, the “area with substrate EPLYFQS” value was 0.158 and the “area with substrate EQLYFQS” value was 0.13. The “area with substrate ERLYFQS” value was 0.103, the “area with substrate ESLYFQS” value was 0.112 and the “area with substrate ETLYFQS” value was 0.106. The “area with substrate EVLYFQS” value was 0.0822 and the “area with substrate EWLYFQS” value was 0.0747.

With E25F the “area with substrate ECLYFQS” value was 0.0975, the “area with substrate EDLYFQS” value was 0.12 and the “area with substrate EELYFQS” value was 0.128. For the same variant, the “area with substrate EGLYFQS” value was 0.114, the “area with substrate EILYFQS” value was 0.0861 and the “area with substrate EKLYFQS” value was 0.0989. For the same variant, the “area with substrate ELLYFQS” value was 0.0673, the “area with substrate EQLYFQS” value was 0.107 and the “area with substrate ERLYFQS” value was 0.111. The “area with substrate ESLYFQS” value was 0.147, the “area with substrate ETLYFQS” value was 0.106 and the “area with substrate EVLYFQS” value was 0.0885. The “area with substrate EWLYFQS” value was 0.0935.

With P40V the “area with substrate ECLYFQS” value was 0.0697, the “area with substrate EDLYFQS” value was 0.145 and the “area with substrate EELYFQS” value was 0.125. For the same variant, the “area with substrate EFLYFQS” value was 0.11, the “area with substrate EGLYFQS” value was 0.112 and the “area with substrate EHLYFQS” value was 0.121. The “area with substrate EILYFQS” value was 0.106, the “area with substrate EKLYFQS” value was 0.101 and the “area with substrate EMLYFQS” value was 0.125. The “area with substrate EQLYFQS” value was 0.118, the “area with substrate ESLYFQS” value was 0.0993 and the “area with substrate EVLYFQS” value was 0.094. For the same variant, the “area with substrate EWLYFQS” value was 0.0992.

With N52E the “area with substrate ECLYFQS” value was 0.0712, the “area with substrate EDLYFQS” value was 0.0853 and the “area with substrate EHLYFQS” value was 0.0853. The “area with substrate EMLYFQS” value was 0.105, the “area with substrate EPLYFQS” value was 0.0856 and the “area with substrate EQLYFQS” value was 0.0767. For the same variant, the “area with substrate ESLYFQS” value was 0.0741, the “area with substrate EVLYFQS” value was 0.0747 and the “area with substrate EWLYFQS” value was 0.0698.

With N52A the “area with substrate ECLYFQS” value was 0.0973, the “area with substrate EDLYFQS” value was 0.111 and the “area with substrate EELYFQS” value was 0.0932. For the same variant, the “area with substrate EGLYFQS” value was 0.0771, the “area with substrate EHLYFQS” value was 0.126 and the “area with substrate EILYFQS” value was 0.0684. The “area with substrate EKLYFQS” value was 0.0905, the “area with substrate ELLYFQS” value was 0.0767 and the “area with substrate EMLYFQS” value was 0.0716. The “area with substrate EPLYFQS” value was 0.161, the “area with substrate EQLYFQS” value was 0.097 and the “area with substrate ESLYFQS” value was 0.0817. For the same variant, the “area with substrate EVLYFQS” value was 0.0642.

In the case of N52L, the “area with substrate ECLYFQS” value is reported as 0.0481, the “area with substrate EDLYFQS” value is reported as 0.067 and the “area with substrate EELYFQS” value is reported as 0.0616. The “area with substrate EGLYFQS” value was 0.104, the “area with substrate EILYFQS” value was 0.0643 and the “area with substrate ELLYFQS” value was 0.0662. For the same variant, the “area with substrate EMLYFQS” value was 0.0657, the “area with substrate EPLYFQS” value was 0.102 and the “area with substrate EQLYFQS” value was 0.0677. For the same variant, the “area with substrate ERLYFQS” value was 0.0642, the “area with substrate ESLYFQS” value was 0.073 and the “area with substrate ETLYFQS” value was 0.0589. The “area with substrate EVLYFQS” value was 0.061, the “area with substrate EWLYFQS” value was 0.0661 and the “area with substrate EYLYFQS” value was 0.0614.

With P14L the “area with substrate ECLYFQS” value was 0.107, the “area with substrate EDLYFQS” value was 0.127 and the “area with substrate EELYFQS” value was 0.145. For the same variant, the “area with substrate EFLYFQS” value was 0.102, the “area with substrate EHLYFQS” value was 0.102 and the “area with substrate EILYFQS” value was 0.0965. For the same variant, the “area with substrate EKLYFQS” value was 0.123, the “area with substrate EMLYFQS” value was 0.112 and the “area with substrate EQLYFQS” value was 0.125. For the same variant, the “area with substrate ERLYFQS” value was 0.105, the “area with substrate ESLYFQS” value was 0.113 and the “area with substrate ETLYFQS” value was 0.146. For the same variant, the “area with substrate EVLYFQS” value was 0.104 and the “area with substrate EWLYFQS” value was 0.125.

With T30E the “area with substrate ECLYFQS” value was 0.0896, the “area with substrate EDLYFQS” value was 0.116 and the “area with substrate EELYFQS” value was 0.0935. For the same variant, the “area with substrate EFLYFQS” value was 0.104, the “area with substrate EGLYFQS” value was 0.0974 and the “area with substrate EHLYFQS” value was 0.124. The “area with substrate EILYFQS” value was 0.0935, the “area with substrate ELLYFQS” value was 0.0831 and the “area with substrate EMLYFQS” value was 0.0676. For the same variant, the “area with substrate EQLYFQS” value was 0.112, the “area with substrate ERLYFQS” value was 0.11 and the “area with substrate ESLYFQS” value was 0.0762. For the same variant, the “area with substrate ETLYFQS” value was 0.1, the “area with substrate EVLYFQS” value was 0.106 and the “area with substrate EWLYFQS” value was 0.0567. For the same variant, the “area with substrate EYLYFQS” value was 0.108.

For D27N, the “area with substrate ECLYFQS” value was 0.0863, the “area with substrate EDLYFQS” value was 0.131 and the “area with substrate EELYFQS” value was 0.103. For the same variant, the “area with substrate EHLYFQS” value was 0.167, the “area with substrate EKLYFQS” value was 0.115 and the “area with substrate EMLYFQS” value was 0.11. For the same variant, the “area with substrate ESLYFQS” value was 0.0911, the “area with substrate EVLYFQS” value was 0.072 and the “area with substrate EWLYFQS” value was 0.082. The “area with substrate EYLYFQS” value was 0.0793.
